Source: the supplement of paper PMC4996465
Viability of KB3-1 and Nalm-6 cells after 48 h of drug alone (CellTiter-Glo), 11 doses over about 4.5 log units. % of DMSO wells, lower = more cell loss; AC50 from the fitted curve, lower = more potent. No active / inactive call. Nalm-6 was screened in two runs. AC50 is listed only for well-fitted inhibitory curves. KB3-1 is a HeLa-derived carcinoma line, Nalm-6 a B-cell precursor leukaemia line.

Key:
KB3-1 = assay: viability (% of DMSO control); higher = more viable cells
Protocol: (§1)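 Eleven-dose screen of the NCATS MIPE 3 library on cells without co-treatment; CellTiter-Glo after 48 h, as % of DMSO wells.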

Nalm-6 = assay: as above
Protocol: as §1

| SMILES | viability (KB3-1; 0.00078 µM) [%] | viability (KB3-1; 0.00234 µM) [%] | viability (KB3-1; 0.00702 µM) [%] | viability (KB3-1; 0.0211 µM) [%] | viability (KB3-1; 0.0632 µM) [%] | viability (KB3-1; 0.19 µM) [%] | viability (KB3-1; 0.569 µM) [%] | viability (KB3-1; 1.71 µM) [%] | viability (KB3-1; 5.12 µM) [%] | viability (KB3-1; 15.4 µM) [%] | viability (KB3-1; 46.1 µM) [%] | viability (Nalm-6; run: 1, 0.00078 µM) [%] | viability (Nalm-6; run: 1, 0.00234 µM) [%] | viability (Nalm-6; run: 1, 0.00702 µM) [%] | viability (Nalm-6; run: 1, 0.0211 µM) [%] | viability (Nalm-6; run: 1, 0.0632 µM) [%] | viability (Nalm-6; run: 1, 0.19 µM) [%] | viability (Nalm-6; run: 1, 0.569 µM) [%] | viability (Nalm-6; run: 1, 1.71 µM) [%] | viability (Nalm-6; run: 1, 5.12 µM) [%] | viability (Nalm-6; run: 1, 15.4 µM) [%] | viability (Nalm-6; run: 1, 46.1 µM) [%] | viability (Nalm-6; run: 2, 0.00078 µM) [%] | viability (Nalm-6; run: 2, 0.00234 µM) [%] | viability (Nalm-6; run: 2, 0.00702 µM) [%] | viability (Nalm-6; run: 2, 0.0211 µM) [%] | viability (Nalm-6; run: 2, 0.0632 µM) [%] | viability (Nalm-6; run: 2, 0.19 µM) [%] | viability (Nalm-6; run: 2, 0.569 µM) [%] | viability (Nalm-6; run: 2, 1.71 µM) [%] | viability (Nalm-6; run: 2, 5.12 µM) [%] | viability (Nalm-6; run: 2, 15.4 µM) [%] | viability (Nalm-6; run: 2, 46.1 µM) [%] |
| --- | --- | --- | --- | --- | --- | --- | --- | --- | --- | --- | --- | --- | --- | --- | --- | --- | --- | --- | --- | --- | --- | --- | --- | --- | --- | --- | --- | --- | --- | --- | --- | --- | --- |
| NC(=O)c1ccc(-c2nc(-c3ccc4c(c3)OCO4)c(-c3ccccn3)[nH]2)cc1 | 101 | 105 | 100 | 97.8 | 96.5 | 99.5 | 106 | 105 | 111 | 113 | 99.7 | 99.3 | 102 | 114 | 107 | 107 | 117 | 111 | 117 | 119 | 121 | 77.3 | 104 | 102 | 110 | 110 | 114 | 110 | 101 | 116 | 117 | 112 | 88.6 |
| OCCn1cc(-c2ccc3c(c2)CC/C3=N\O)c(-c2ccncc2)n1 | 99.4 | 102 | 95.6 | 102 | 101 | 110 | 109 | 111 | 103 | 102 | 88.1 | 116 | 115 | 110 | 109 | 102 | 104 | 105 | 113 | 119 | 105 | 89.3 | 106 | 104 | 106 | 93 | 101 | 105 | 107 | 101 | 99.7 | 107 | 98.3 |
| OCCn1cc(-c2cnc3nnn(Cc4ccc5ncccc5c4)c3n2)cn1 | 102 | 102 | 94.7 | 96 | 94.8 | 95.9 | 94.6 | 98 | 99.7 | 101 | 96.6 | 3.61 | 125 | 112 | 116 | 118 | 119 | 112 | 117 | 120 | 107 | 87.2 | 115 | 118 | 110 | 107 | 112 | 111 | 109 | 105 | 108 | 106 | 102 |
| Nc1ncnc2nc(-c3ccc(N4CCOCC4)nc3)cc(-c3cccc(Br)c3)c12 [ABT-702] | 103 | 106 | 101 | 105 | 108 | 110 | 107 | 103 | 106 | 104 | 74.6 | 83 | 76.4 | 82.1 | 94.2 | 97.3 | 109 | 108 | 114 | 114 | 103 | 58.7 | 109 | 114 | 112 | 116 | 110 | 114 | 105 | 111 | 105 | 104 | 57.6 |
| CCCCC/C=C\C/C=C\C/C=C\C/C=C\CCCC(=O)NC1CC1 [ACPA] | 101 | 104 | 101 | 104 | 102 | 103 | 106 | 106 | 100 | 100 | 85 | 94.1 | 98.1 | 110 | 106 | 105 | 120 | 112 | 119 | 108 | 109 | 108 | 96.8 | 98.1 | 108 | 104 | 113 | 98.8 | 104 | 110 | 107 | 97.5 | 103 |
| Cc1csc(-c2nnc(Nc3ccc(Oc4ncccc4-c4ccnc(N)n4)cc3)c3ccccc23)c1 [AMG-900] | 85.1 | 81.7 | 82.8 | 78.9 | 87.7 | 88.3 | 84.2 | 88.2 | 85.4 | 85.7 | 33.9 | 57.7 | 67.7 | 68.4 | 72 | 71.6 | 60.3 | 62.6 | 64.1 | 87.5 | 83 | 23.5 | 77.4 | 89.3 | 84.4 | 90.3 | 81.2 | 78.5 | 73.2 | 71.5 | 78.2 | 88.3 | 16.3 |
| CC(=O)NCCC(=O)N[C@@H](CCC(N)=O)C(=O)N[C@@H](CO)C(=O)N[C@@H](CCC(N)=O)C(=O)N[C@@H](CCC(N)=O)C(=O)N[C@H](C(=O)N[C@@H](Cc1ccccc1)C(=O)N[C@]1(C)CCCCCC/C=C\CCC[C@@](C)(C(=O)N[C@@H](CCC(N)=O)C(=O)N[C@@H](CC(N)=O)C(N)=O)NC(=O)[C@H](CC(C)C)NC(=O)[C@H](CC(C)C)NC(=O)[C@@H](CCCNC(=N)N)NC(=O)[C@H](Cc2c[nH]c3ccccc23)NC(=O)[C@H](CC(C)C)NC(=O)[C@H](CC(N)=O)NC1=O)[C@H](C)O [Ac-SAH-p53-8] | 99.6 | 103 | 96.6 | 104 | 106 | 102 | 103 | 101 | 105 | 94.1 | 96.9 | 125 | 106 | 115 | 115 | 127 | 123 | 125 | 119 | 127 | 115 | 24.8 | 111 | 114 | 111 | 105 | 100 | 116 | 111 | 109 | 110 | 106 | 3.33 |
| NC(=O)c1ncn([C@@H]2O[C@H](CO)[C@@H](O)[C@H]2O)c1N [Acadesine] | 99.1 | 104 | 100 | 99.1 | 102 | 105 | 103 | 106 | 107 | 105 | 106 | 104 | 113 | 102 | 120 | 103 | 109 | 120 | 121 | 119 | 121 | 123 | 102 | 107 | 97.1 | 113 | 102 | 104 | 110 | 111 | 118 | 109 | 126 |
| CC(=O)SC[C@@H](C)C(=O)N1CCC[C@H]1C(=O)N[C@@H](Cc1ccccc1)C(=O)O [Alacepril] | 102 | 99.3 | 100 | 108 | 105 | 99.2 | 104 | 99.8 | 98.7 | 95.4 | 96.8 | 70.3 | 67.9 | 79.6 | 88.4 | 94.1 | 92.6 | 104 | 109 | 115 | 109 | 103 | 107 | 108 | 107 | 105 | 108 | 104 | 108 | 107 | 105 | 102 | 104 |
| COC1=CC=CC(=C1/C2=N/CC3=C(N=C(NC4=CC(=C(C=C4)C(O)=O)OC)N=C3)C5=CC=C(Cl)C=C25)F [Alisertib] | 94.5 | 93.5 | 87.3 | 67.9 | 58.6 | 89.9 | 90.5 | 86.9 | 79.6 | 79.5 | 41.3 | 91.7 | 85.3 | 63.6 | 60.6 | 63.9 | 59.7 | 63.5 | 72.8 | 76.7 | 64.8 | 34.5 | 99.6 | 98.3 | 70.4 | 62.7 | 66.7 | 70.9 | 72 | 73.1 | 61 | 68.3 | 32.5 |
| CC(=O)Nc1ccc(OC[C@](C)(O)C(=O)Nc2ccc([N+](=O)[O-])c(C(F)(F)F)c2)cc1 [Andarine] | 99.3 | 104 | 99.2 | 102 | 105 | 109 | 105 | 95.4 | 97.7 | 103 | 94.1 | 79.3 | 93 | 102 | 103 | 105 | 108 | 115 | 105 | 117 | 107 | 92.7 | 106 | 109 | 118 | 110 | 108 | 114 | 110 | 112 | 112 | 109 | 99.7 |
| Nc1nc(-c2nn(Cc3ccccc3F)c3ncccc23)nc(N)c1N1CCOCC1 [BAY-41-8543] | 102 | 96.6 | 104 | 108 | 104 | 103 | 97.1 | 96.4 | 94.5 | 97.7 | 98.1 | -1.48 | -1.2 | -0.801 | -0.0273 | 2.99 | 18.5 | 53.8 | 64.1 | 86.4 | 94.4 | 94.7 | 103 | 106 | 106 | 113 | 106 | 111 | 109 | 112 | 113 | 114 | 112 |
| COC1=C(OC)C=C(CC/2=N/N\3C(C(C)\N=C3[C@@H](CCC4=CC=CC=C4)[C@@H](C)O)C(=O)N2)C=C1 (stereo not given in full) [BAY-60-7550] | 109 | 106 | 106 | 108 | 97.5 | 110 | 105 | 103 | 103 | 99.7 | 79.5 | 106 | 111 | 109 | 120 | 117 | 123 | 110 | 114 | 110 | 105 | 61.3 | 103 | 109 | 104 | 108 | 107 | 110 | 106 | 105 | 111 | 107 | 62 |
| Cn1c(CCCC(=O)O)nc2cc(N(CCCl)CCCl)ccc21 [Bendamustine] | 108 | 104 | 99.6 | 99.1 | 99.5 | 99.4 | 99.5 | 99.3 | 98.7 | 98 | 104 | 104 | 104 | 106 | 109 | 111 | 116 | 106 | 112 | 90.8 | 92.2 | 107 | 99.4 | 105 | 107 | 103 | 103 | 91.7 | 104 | 97.9 | 101 | 95.5 | 95.9 |
| Cc1c(CCOc2ccc(C(=O)O)cc2)c2cc(Cl)ccc2n1C(c1ccccc1)c1ccccc1 [CDIBA] | 100 | 104 | 101 | 103 | 107 | 106 | 103 | 107 | 101 | 101 | 61.5 | 120 | 120 | 116 | 115 | 125 | 125 | 121 | 121 | 107 | 126 | 32.1 | 110 | 110 | 111 | 105 | 109 | 105 | 106 | 105 | 110 | 110 | 23.3 |
